According to PubChem BioAssay AID651820 (National Center for Advancing Translational Sciences (NCATS), 2012):
The campaign covered roughly 340,000 compounds. About 12,000 (3.5%) were called active. Inconclusive means that the source gave no clear call. Such entries were picked first, then a sample of the others. Calls come from the whole dose curve; as a rule, active = well fitted inhibition curve with a large enough effect; inconclusive = small, poorly fitted or top-dose-only effect, or another doubt; inactive = no such curve, though single readings can be large or run the other way. No potency is given beside an inconclusive call; the fits are too rough.

Assay: qHTS Assay for Inhibitors of Hepatitis C Virus (HCV)
Conditions: Huh7.5.1 HCVcc-Cre (HCVcc is cell-culture hepatitis C virus) infection, luciferase reporter, 44 h; activity change, negative = inhibition: at 41.8 µM (top of the series) unless noted
Summary of the method: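 Cells (1,000/well) were plated 4 h before compound, then infected with HCVcc-Cre virus (~0.5 moi). After 44 h further culture, infection was read as luciferase luminescence following a 15 min substrate incubation at room temperature.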
% is set by controls: 0 for no effect and ±100 for the full control effect; potency is the fitted concentration of half-maximal effect; tags give direction and shape of the fitted curve.

| SMILES | Potency | activity change, negative = inhibition |
| --- | --- | --- |
| Cc1cc(C)n(-c2ccc(C(=O)Nc3cccc(S(=O)(=O)N(C)C)c3)cc2)n1 | active: 5.01 µM |  |
| CCCCC1=CC2=CC(=O)C(C)(OC(=O)c3cccs3)C(=O)C2=CO1 (centres undefined) |  | inactive: 11.8% |
| CCCn1nc2cc(C(=O)NCCCCc3ccccc3)ccc2c1OCC | inconclusive [inhibitor, full curve] |  |
| CC[C@]12c3[nH]c4cc(-c5ccco5)ccc4c3CCN1C(=O)[C@@H](CC(=O)NC/C=C(\C)CCC=C(C)C)C[C@@H]2C(=O)N1CCN(C(=O)C2CC2)CC1 | active: 15.8 µM |  |
| O=C(c1cc(-c2ccc(F)cc2)nc2ccccc12)N1CCC1 |  | inactive: -13.2% |
| Cc1nc(Nc2ccc(O)cc2)c2c3c(sc2n1)CCCC3 | inconclusive [inhibitor, single point] |  |
| Oc1ccc(C[C@@H]2CNCCN2CCc2cccc3ccccc23)cc1 | inconclusive [inhibitor, single point] |  |
| Cc1ccc(N2CC(NC(=O)C(=O)c3c(C)[nH]c4ccccc34)CC2=O)cc1 (centres undefined) | inconclusive [inhibitor, single point] |  |
| CCN(CC)c1ccc2nc3ccccc3[n+](CC)c2c1 | active: 6.31 µM |  |
| CC(C)OC(=O)c1ccc(NC(=O)c2ccco2)cc1 | inconclusive [inhibitor, single point] |  |
| COC(=O)c1sc(N)c(C(=O)OC)c1COC(=O)[C@@H](NS(=O)(=O)c1cccc(Cl)c1)C(C)C | inconclusive [inhibitor, single point] |  |
| N#Cc1nc(-c2ccco2)oc1N1CCOCC1 | inconclusive [inhibitor, single point] |  |
| O=C(Nc1cccc(Cl)c1)Nc1nc(-c2ccc(Cl)cc2)cs1 | inconclusive [inhibitor, single point] |  |
| COCc1ccc(CN2CCC(C(=O)Nc3cccc(-c4cscn4)c3)CC2)o1 | inconclusive [inhibitor, single point] |  |
| Cc1cc(C)c(NC(=O)CN(C2CCCCC2)C2CCCCC2)c(C)c1 | inconclusive [inhibitor, partial curve] |  |
| CCCSC1=C(C#N)C(c2ccc(OC)cc2)C2=C(CC(C)(C)CC2=O)N1 (centres undefined) | inconclusive [inhibitor, single point] |  |
| Cc1nnc(N/N=C/c2cc([N+](=O)[O-])c(N3CCC(C)CC3)cc2N2CCC(C)CC2)n1N | active: 12.6 µM |  |
| c1ccc2c(c1)CCN(C1=Nc3cccc4cccc1c34)C2 | inconclusive [inhibitor, full curve, poor fit] |  |
| CC(C)=CCC/C(C)=C/CC/C(C)=N/O |  | inactive: 6.27% |
| CCC(CC)CN1C(N(C)C)=NC[C@@H]1CC(C)C |  | inactive: 20.1% |
| Nc1c(C(=O)CSc2nnnn2-c2ccc(O)cc2)c(=O)[nH]c(=O)n1C1CC1 |  | inactive: -1.25% |
| COc1cc(NC(=O)c2[nH]c(C)c(C(C)=O)c2C)cc(OC)c1OC | inconclusive [inhibitor, partial curve] |  |
| Cc1ccc(OCC(=O)Nc2ccccc2-c2ccccc2)cc1 | inconclusive [inhibitor, single point] |  |

| SMILES | Potency | activity change, negative = inhibition |
| --- | --- | --- |
| CCN(CC)S(=O)(=O)c1ccc(N2CCCCC2)c(NC(=O)/C(C#N)=C/c2ccc(OC)cc2)c1 | inconclusive [inhibitor, single point] |  |
| CCc1cccc(NS(=O)(=O)c2c(C)nc3scc(C)n3c2=O)c1 |  | inactive: -13.4% |
| COc1ccc(CC2(CO)CCN(CC3=Cc4cc(Cl)ccc4OC3)CC2)cc1 | active: 4.47 µM |  |
| Cc1ccc(Cn2cc(S(=O)(=O)c3ccc(Cl)cc3)c(=O)c3cc(F)ccc32)cc1 | inconclusive [inhibitor, full curve, poor fit] |  |
| COc1cc2c(c3ccccc13)CCCC2=O | inconclusive [inhibitor, partial curve] |  |
| CCN1CCN(S(=O)(=O)c2ccc(Cl)c(C(=O)Oc3ccc(CC(=O)OC)cc3)c2)CC1 |  | inactive: 2.78% |
| Cn1c(=O)c2c(nc(NCc3cccnc3)n2Cc2cccc(C(F)(F)F)c2)n(C)c1=O | inconclusive [inhibitor, single point] |  |
| Cc1ccc(-c2ccc(/C=N\NC(=O)C3C(=O)NCC3c3ccccc3)o2)cc1Cl (centres undefined) | active: 8.91 µM |  |
| CCC(C)(C)C1CCC2(CC1)NC(=O)N(CC(=O)N1CCN(C(=O)c3ccco3)CC1)C2=O (centres undefined) | inconclusive [inhibitor, single point] |  |
| CN(C)c1ccc(C=NNC(=O)c2cccc3ccccc23)c(Cl)c1 | inconclusive [inhibitor, single point] |  |
| COc1ccc(-c2noc(-c3ccc(Br)o3)n2)cc1OC |  | inactive: -17.9% |
| COc1ccc(/C=C/C(=O)OCC(=O)N2CCCCCC2)c(OC)c1 |  | inactive: -27.2% |
| CCOC(=O)C1=C(COC(=O)Cc2ccc(Br)cc2)NC(=O)NC1C (centres undefined) |  | inactive: 18.6% |
| Cn1cc(C(=O)c2ccc(Cl)cc2Cl)cc1C(=O)N/N=C(\N)COc1cccc(C(F)(F)F)c1 | inconclusive [inhibitor, partial curve] |  |
| CC1CN(S(=O)(=O)c2cccc(C(=O)OCCOc3ccccc3)c2)CC(C)O1 (centres undefined) | inconclusive [inhibitor, single point] |  |
| COc1ccc(C(C(=O)NC2CCCCC2)N(Cc2ccco2)C(=O)c2snc(C(N)=O)c2N)cc1 (centres undefined) | inconclusive [inhibitor, partial curve] |  |
| Clc1ccc(OCc2nc(-c3ccccn3)no2)c(Br)c1 | inconclusive [inhibitor, partial curve, poor fit] |  |
| O=C(CN1CCC(NC(=O)c2ccccc2F)CC1)NCc1ccc(F)cc1 |  | inactive: -4.5% |
| CCOC(=O)c1sc(NC(=S)NC(=O)C2CCCC2)cc1C | inconclusive [inhibitor, single point] |  |
| COc1ccccc1/C=C/C(=O)Nc1ccc(N2CCOCC2)cc1 | inconclusive [inhibitor, partial curve] |  |
| CCCCOc1ccc(-c2cn3ccccc3n2)cc1[N+](=O)[O-] | inconclusive [inhibitor, single point] |  |
| CCn1c(N2CCN(C(=S)NCC(C)C)CC2)nc2ccccc21 | inconclusive [inhibitor, partial curve] |  |
| CC1CCc2c(sc(Nc3nc4c(F)cccc4s3)c2C(N)=O)C1 (centres undefined) | inconclusive [inhibitor, partial curve, poor fit] |  |

| SMILES | Potency | activity change, negative = inhibition |
| --- | --- | --- |
| O=C(c1ccc2c3c(cccc13)CC2)C1CCCN(C(=O)c2cccnc2)C1 (centres undefined) |  | inactive: -12.6% |
| COC(=O)C1CCN(C(=O)C2CCN(C(=O)[C@H](C)NS(=O)(=O)c3ccc(C)cc3)CC2)CC1 | inconclusive [inhibitor, single point] |  |
| CSCCC(NC(=O)c1ccco1)C(=O)NCc1ccc(F)cc1 (centres undefined) |  | inactive: 10.9% |
| CN(C)CCO/N=C(\c1ccc(Br)cc1)c1cccnc1 | inconclusive [inhibitor, single point] |  |
| Cc1cc(F)ccc1S(=O)(=O)NCC(c1cccnc1)N1CCc2ccccc21 (centres undefined) | inconclusive [inhibitor, single point] |  |
| O=C(Nc1ccc(S(=O)(=O)NC2=NCCCCC2)cc1)c1ccc2ccccc2n1 | inconclusive [inhibitor, single point] |  |
| CC(=O)Cn1ncc(N2CCOCC2)cc1=O |  | inactive: 14.4% |
| O=C(NN=Cc1c(O)ccc2ccccc12)c1ccncc1 | inconclusive [inhibitor, full curve] |  |
| C=CCOn1c(=O)c(-c2ccc(OC)cc2)[n+]([O-])c2ccccc21 |  | inactive: 2.95% |
| CCc1ccccc1NC(=O)CSc1nc2c(c(-c3ccco3)c1C#N)CCCC2 | inconclusive [inhibitor, partial curve, poor fit] |  |
| O=[N+]([O-])c1ccc(O)c(C=Nc2ccc3c(c2)OCCO3)c1 |  | inactive: -7.53% |
| NC(=O)CCn1c(C(=O)c2cc(Cl)c(N)c(Cl)c2)c2ccccc2[n+]1[O-] |  | inactive: 5.99% |
| CNCCCCOc1ccccc1-c1ccccc1 | active: 12.6 µM |  |
| Oc1[nH]c2ccc(Br)cc2c1N=NC(=S)N1CCOCC1 | active: 11.2 µM |  |
| COc1ccc(CN2CCC3CC2c2cc(-c4cccc(C)c4)ccc23)cc1 (centres undefined) | inconclusive [inhibitor, single point] |  |
| S=C(NCc1ccc(Cl)cc1)NC12CC3CC(CC(C3)C1)C2 | inconclusive [inhibitor, single point] |  |
| CCc1c(C2(O)CCCCC2)[nH]c2ccc(C(F)(F)F)cc12 | inconclusive [inhibitor, single point] |  |
| O=C(Nc1ccc(-c2csc(Nc3ccccc3)n2)cc1)c1cccc(C(F)(F)F)c1 | inconclusive [inhibitor, partial curve] |  |
| CN(C)C(=O)CSc1nnc(-c2cc(-c3cccs3)nc3ccccc23)o1 | inconclusive [inhibitor, full curve] |  |
| O=C(N/N=C/c1cccnc1)c1cccc(Br)c1 |  | inactive: 18.5% |
| COc1ccc(C2CC(c3cccc(Br)c3)=NN2c2ccc(S(N)(=O)=O)cc2)cc1 (centres undefined) | inconclusive [inhibitor, single point] |  |
| CCOc1ccc(-c2nc(-c3ccccc3)no2)cc1OCC | inconclusive [inhibitor, partial curve] |  |
| COc1cc(NS(=O)(=O)c2ccc(NC(=S)NC(=O)COc3ccccc3OC)cc2)nc(OC)n1 | inconclusive [inhibitor, single point] |  |
